# From PubChem BioAssay AID504832 (National Center for Advancing Translational Sciences (NCATS), 2011)
# The campaign covered roughly 310,000 compounds. About 18,000 (5.8%) were called active. Inconclusive results, whose numbers are uncertain, are shown with a selection of clear calls. The call rests on the fitted dose curve; in most records, active means well fitted inhibition curve with a large enough effect; inconclusive means small, poorly fitted or top-dose-only effect, or another doubt; inactive means no such curve, though single readings can be large or run the other way. Potencies of inconclusive entries are left out as doubtful fits.
# Assay: Primary qHTS for delayed death inhibitors of the malarial parasite plastid, 48 hour incubation
# Settings: P. falciparum luciferase growth in erythrocytes; series mostly up to 28.7 µM; activity change, negative = inhibition: at the top concentration
# In short: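 Luciferase-expressing P. falciparum in infected erythrocytes (2% hematocrit, 0.1% parasitemia final) in RPMI 1640/0.5% Albumax were exposed to compound for 48 hours at 37 C, 5% CO2; growth read as luminescence.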
# On the % scale 0 is the no-effect control and ±100 the full control effect; potency means the concentration at half of the fitted maximal effect; tags describe the fitted curve by direction and shape.
SMILES,Potency,"activity change, negative = inhibition"
Cc1ccc(CNC(=O)C2CC(c3cccc([N+](=O)[O-])c3)=NO2)cc1 (centres undefined),active: 2.62 µM,–
CS(=O)(=O)c1ccc2nc(NC(=O)c3ccc(S(=O)(=O)NCC4CCCO4)cc3)sc2c1 (centres undefined),"inconclusive [inhibitor, single point]",–
O=C1CC(N2CCC(O)(c3ccc(Cl)cc3)CC2)C(=O)N1Cc1ccc(N2CCCC2=O)cc1 (centres undefined),active: 9.28 µM,–
O=S(=O)(Cc1ccccc1)Nc1ccc(F)cc1,–,inactive: 16.6%
COc1cc2c(cc1OC)C1O[C@](c3ccsc3)(C2)Oc2cc(C)n(Cc3ccccc3)c(=O)c21,"inconclusive [inhibitor, partial curve]",–
CSC(=S)N/N=C(\C)c1ccc(Br)cc1,"inconclusive [inhibitor, partial curve, poor fit]",–
CCc1cccc(NC(=O)Cn2c3[n+](c4ccc(C(F)(F)F)cc42)CCCCC3)c1,active: 4.65 µM,–
O=C(NNC(=O)c1ccc2c(c1)OCO2)NC1CCCCC1,–,inactive: 21.3%
CCOC(=O)c1c(CN2CCOCC2)n(-c2ccccc2)c2ccc(O)cc12,active: 10.4 µM,–
CC(C)C[C@H](NC(=O)NCc1ccc(Cl)cc1)C(=O)O,–,inactive: -4.81%
Cc1ccc(C)c(NC(=O)CN(C)C(=O)c2cc3ccccc3o2)c1,active: 2.33 µM,–
CNc1ccc(C(=O)OCC(=O)Nc2ccnn2C(C)C)cc1[N+](=O)[O-],"inconclusive [inhibitor, single point]",–
O=C(Nc1ccc(S(=O)(=O)N2CCOCC2)cc1)c1ccc(CN2CCc3ccccc3C2)cc1,active: 11.7 µM,–
CC1(NC(=O)CCNC(=O)c2ccc(C(C)(C)C)cc2)CCS(=O)(=O)C1 (centres undefined),–,inactive: 2.66%
Cc1ccccc1OCCC(=O)N1CCN(S(=O)(=O)c2ccc(Cl)cc2)CC1,"inconclusive [inhibitor, partial curve, poor fit]",–
CC(=O)NC(c1cccs1)c1cc([N+](=O)[O-])c2cccnc2c1O (centres undefined),"inconclusive [inhibitor, single point]",–
COc1cccc(C(=O)NCC(=O)OCC(=O)Nc2cc(OC)c([N+](=O)[O-])cc2C)c1,–,inactive: 7.85%
CCCCCCCN1C2=NCCN2c2ccccc21,"inconclusive [inhibitor, partial curve, poor fit]",–
COc1cc(/C=C/C(=O)N2CCN(CC(=O)N3CCCC3)CC2)cc(OC)c1OC,"inconclusive [inhibitor, single point]",–
COc1ccc2cc(CCNC(=O)c3ccc4c(c3)OCO4)c(=O)[nH]c2c1,"inconclusive [inhibitor, partial curve, poor fit]",–
COc1ccc(OC)c2[nH]c(=O)c(CCNC(=O)c3ccc(S(=O)(=O)N4CCCC4)cc3)cc12,"inconclusive [inhibitor, partial curve]",–
O=C(COC(=O)c1ccc(O)cc1O)NC1CC1,–,inactive: -0.637%
CN(CC(=O)Nc1ccc(F)cc1)C(=O)c1cccc(S(=O)(=O)N2CCN(c3ccccc3)CC2)c1,–,inactive: -17.1%

SMILES,Potency,"activity change, negative = inhibition"
CCOC(=O)c1c(-c2ccc(C)o2)csc1NC(=S)NC(=O)N(C)C,"inconclusive [inhibitor, single point]",–
CC(=O)N1CCc2cc(S(=O)(=O)CCC(=O)N3CCN(c4ccccn4)CC3)ccc21,"inconclusive [inhibitor, single point]",–
Cc1ccc(C(C(=O)NC(C)(C)C)N(Cc2ccco2)C(=O)CCC(=O)Nc2ccccn2)cc1 (centres undefined),"inconclusive [inhibitor, single point]",–
CN1CCN(C(=O)c2cc3ccccc3cc2O)CC1,"inconclusive [inhibitor, partial curve]",–
O=[N+]([O-])c1ccc(-c2nc(C(Cl)Cl)c3ccccc3n2)cc1,"inconclusive [inhibitor, single point]",–
OC1CCCN(Cc2cccc3ccccc23)C1 (centres undefined),–,inactive: 3.79%
CC1CCCN(c2nc3c(c(=O)[nH]c(=O)n3C)n2CCCc2ccccc2)C1 (centres undefined),"inconclusive [inhibitor, single point]",–
O=C(CNC1CCCCC1)Nc1cccc(C(F)(F)F)c1,–,inactive: -22.8%
NC(=O)c1ccc(NC(=O)CSc2nc3ccccc3c(=O)n2CCCN2CCOCC2)cc1,–,inactive: -27%
Cc1ccc(C(=O)Nc2cccc(C(F)(F)F)c2)cc1NC(=O)c1ccno1,"inconclusive [inhibitor, single point]",–
O=c1c2ccccc2c(C=NC2CCS(=O)(=O)C2)c(O)n1-c1ccccc1 (centres undefined),"inconclusive [inhibitor, single point]",–
Cc1noc(C)c1COc1ccccc1C(=O)NCCOc1ccccc1,"inconclusive [inhibitor, single point]",–
CC1(OC(=O)CCc2ccccc2)C(=O)C=C2C=C(c3ccc(C#N)cc3)N(C(CO)CO)C=C2C1=O (centres undefined),"inconclusive [inhibitor, single point]",–
OC1COC(O)C(O)C1O (centres undefined),–,inactive: -4.16%
Cc1ccc(S(=O)(=O)NCCC(=O)OCC(=O)NC(=O)c2cccn2C)cc1,"inconclusive [inhibitor, single point]",–
O=C(NCCCN1CCOCC1)C(=O)N/N=C/c1cccc2ccccc12,–,inactive: 12%
O=C(Nc1ccc(Br)cc1F)C1CC(=O)N(C2CCCCC2)C1 (centres undefined),"inconclusive [inhibitor, partial curve, poor fit]",–
CCOCCc1nnc(NC(=O)CS(=O)(=O)Cc2ccccc2)s1,–,inactive: 12.2%
CC(=O)N1CCN(c2ccccc2NC(=O)COc2cc(C)ccc2C(C)C)CC1,"inconclusive [inhibitor, full curve]",–
Cc1cc(C)c(N=Cc2c(O)n(-c3nccs3)c(=O)c3ccccc23)c(C)c1,"inconclusive [inhibitor, single point]",–
NC(=O)C1=C[C@@H](c2csc3ccccc23)C[C@@H](OCc2ccc(CO)cc2)O1,"inconclusive [inhibitor, single point]",–
CCOc1cc(C(=O)OCc2ccc(OC)cc2)ccc1OCC(=O)N1CCOCC1,"inconclusive [inhibitor, partial curve]",–
CN(C)C(=O)c1ccc(NC(=O)COC(=O)/C=C/c2cccs2)cc1,–,inactive: -9.9%

SMILES,Potency,"activity change, negative = inhibition"
Fc1ccccc1CN1CCCN(C(=S)Nc2cccc(Cl)c2)C1,active: 9.28 µM,–
Cc1ccc(NS(=O)(=O)c2ccc(NC(=O)CN(c3cc([N+](=O)[O-])ccc3C)S(C)(=O)=O)cc2)c(C)c1,"inconclusive [inhibitor, single point]",–
CCCCOc1ccc(CSc2ncn[nH]2)cc1,–,inactive: 49%
CCOc1ccc(C(=O)CCC(=O)Nc2ccncc2)cc1,"inconclusive [inhibitor, single point]",–
Cc1ccc(OCc2nc(-c3ccccc3)no2)cc1,–,inactive: 94.9%
O=C(/C=C/c1cccnc1)c1ccc(O)cc1,"inconclusive [inhibitor, single point]",–
COCCN(Cc1ccccc1)C(=O)c1ccc(C(=O)c2ccccc2)cc1,"inconclusive [inhibitor, single point]",–
O=C(CN1CCN(c2ccccc2O)CC1)Nc1cc(S(=O)(=O)N2CCCC2)ccc1Cl,active: 4.15 µM,–
Cc1sc2ncnc(SCC(=O)c3ccc4c(c3)OCCO4)c2c1-c1ccccc1,"inconclusive [inhibitor, single point]",–
CCOC(=O)c1ccc(NC(=O)CCc2ccc(CC)o2)cc1,"inconclusive [inhibitor, partial curve, poor fit]",–
Clc1cc(Br)ccc1OCCCn1ccnc1,"inconclusive [inhibitor, partial curve, poor fit]",–
CCC(C)N(C(=O)COc1ccccc1C(=O)NCc1ccccc1)C1CCS(=O)(=O)C1 (centres undefined),"inconclusive [inhibitor, partial curve]",–
Cc1cc(NS(=O)(=O)c2ccc(Nc3nc(-c4ccc(C)c(C)c4)cs3)cc2)no1,"inconclusive [inhibitor, partial curve, poor fit]",–
Cc1ccc(SCC(=O)NN2C(=O)c3ccccc3C2=O)cc1,–,inactive: 22.2%
Cc1ccc(C)c(CSC2=NCCN2S(=O)(=O)c2ccccc2)c1,"inconclusive [inhibitor, partial curve, poor fit]",–
CCOC(=O)c1c(NC(=O)C(=O)N/N=C(\C)c2ccc(OC)cc2)sc2c1CCCCC2,–,inactive: 20.9%
COc1ccc(Cc2nnc(N)s2)cc1,"inconclusive [inhibitor, full curve]",–
CCc1cc(=O)oc2c(C)c(OC(C)C(=O)NC3CC(C)(C)NC(C)(C)C3)ccc12 (centres undefined),"inconclusive [inhibitor, partial curve]",–
O=C(N/N=C/c1cccnc1)c1ccc(F)cc1,–,inactive: 41.8%
O=C(COC(=O)/C=C/c1ccccc1)Nc1ccc(Cl)cn1,"inconclusive [inhibitor, partial curve, poor fit]",–
Cc1ccccc1CNC(=O)C(=O)NCC1CCCN1S(=O)(=O)c1cccs1 (centres undefined),"inconclusive [inhibitor, partial curve]",–
Cc1ccc(S(=O)(=O)N(Cc2cc3ccccc3[nH]c2=O)c2cccc(C)c2)cc1,"inconclusive [inhibitor, partial curve, poor fit]",–
COc1ccccc1/C=N/Nc1cc(C)nc(N2CCOCC2)n1,"inconclusive [inhibitor, single point]",–
